Experimental findings from paper PMC6919601, “Identification of Plasmodium dipeptidyl aminopeptidase allosteric inhibitors by high throughput screening” (PLoS ONE, 2019) are described below.

About 230 (0.21%) of roughly 110,000 compounds showed an effect of 50% or more. The list shows a part of the results.
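Also: 30 min substrate incubation versus DMSO and 10 µM JCP410 controls.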

For the assay, the target named is DPAP1 (Plasmodium falciparum, UniProt Q8IIJ9). In words: primary screen, percent inhibition; read by cleavage of a fluorogenic dipeptide substrate; higher = more effect of the substance. Further details: species or system P. falciparum D10 trophozoite lysates; single well.
Sequence of DPAP1 (Q8IIJ9 whole entry, looked up): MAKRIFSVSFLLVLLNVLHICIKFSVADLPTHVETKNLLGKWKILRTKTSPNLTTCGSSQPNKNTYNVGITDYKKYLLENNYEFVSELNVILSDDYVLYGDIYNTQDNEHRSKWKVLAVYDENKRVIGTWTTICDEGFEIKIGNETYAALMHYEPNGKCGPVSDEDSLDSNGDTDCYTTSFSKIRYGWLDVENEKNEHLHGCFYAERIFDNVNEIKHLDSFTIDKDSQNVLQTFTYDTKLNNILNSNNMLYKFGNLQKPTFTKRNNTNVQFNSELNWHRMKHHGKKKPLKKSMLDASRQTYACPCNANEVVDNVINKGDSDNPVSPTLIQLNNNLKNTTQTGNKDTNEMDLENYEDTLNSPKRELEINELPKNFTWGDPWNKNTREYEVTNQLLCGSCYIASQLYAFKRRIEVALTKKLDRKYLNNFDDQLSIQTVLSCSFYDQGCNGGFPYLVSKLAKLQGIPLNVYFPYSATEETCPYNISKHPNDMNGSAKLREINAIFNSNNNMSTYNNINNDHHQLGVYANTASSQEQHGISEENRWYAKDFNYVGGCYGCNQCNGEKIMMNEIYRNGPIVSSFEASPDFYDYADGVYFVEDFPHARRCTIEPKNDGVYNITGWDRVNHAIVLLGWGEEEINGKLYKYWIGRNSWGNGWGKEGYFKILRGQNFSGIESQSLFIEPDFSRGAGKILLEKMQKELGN
Consider `COc1ccc(C(=O)NCc2ccccc2)c(OC)c1`, for which the “% Inhibition @ 10 uM” value is reported as -3.37%.

With `CCCCNC(=O)c1c(NC(=O)c2ccccc2)sc(C)c1C`, the “% Inhibition @ 10 uM” value was -0.0648%. As for `Cc1ccc(-c2cc(NC(=O)c3ccccc3C)on2)cc1`, the figure is 1.9%; as for `O=C(NC(Cc1ccccc1)C(=O)O)/C(=C\c1ccco1)NC(=O)c1ccccc1Br` (stereo not shown), -3.75%. With `Cc1cccc(C)c1NC(=O)Cc1ccccc1` the figure was -7.42%. With `COc1ccc(OC)c(NC(=O)Cc2cccc3ccccc23)c1` the figure was 2.79%; with `CCCC(=O)Nc1c2c(nc3ccccc13)N(c1ccccc1)CC2`, -0.13%.

Take `CCN(CC)S(=O)(=O)N1CCC(C(=O)NCc2ccco2)CC1`: the “% Inhibition @ 10 uM” value is given as -4.06%.

For the compound `O=C(c1ccc2nc(N3CCCCC3)sc2c1)N1CCN(c2ccccn2)CC1`, the “% Inhibition @ 10 uM” value was found to be 1.03%. Consider `O=C(O)CCNc1cc(Cl)ccc1Oc1ccc(Cl)cc1`, for which the “% Inhibition @ 10 uM” value was 1.42%. Take `C#Cc1cccc(NC(=O)c2cccs2)c1`: the “% Inhibition @ 10 uM” value is recorded as -0.267%. With `CC(C)C[C@H](NC(=O)c1ccco1)C(=O)NCC#N` the figure was 0.174%; with `CC(NC(=O)c1ccccc1F)C(c1cccs1)N1CCOCC1` (stereo not shown), 7.05%; with `O=C(O)c1cc(S(=O)(=O)N2CCOCC2)ccc1F`, -2.22%. As for `Nc1n[nH]c(C(=O)NCc2ccccc2)n1`, the figure is -2.36%; as for `Cn1c(=O)c2c(nc3n(CC(O)c4ccccc4)c(-c4ccccc4)cn23)n(C)c1=O` (stereo not shown), 2.67%; as for `O=Cc1[nH]c2ccccc2c1Cl`, 0.231%. With `CCOCCCNCc1c(C(=O)O)n(Cc2ccccc2)c2cc(OC)ccc12` the figure was -2.68%; with `Cc1cccc(-c2noc(CN(C)S(=O)(=O)c3ccccc3)n2)c1`, -4.54%. In the case of `Cc1nonc1NC(=O)Nc1ccncc1`, the “% Inhibition @ 10 uM” value is -1.86%. Regarding `CC1CCCCN1CCNC(=O)C1c2ccccc2C(=O)N(C)C1c1cccs1` (stereo not shown), the “% Inhibition @ 10 uM” value is -1.19%. With `CC12CN3CN(C1)CC(c1ccccc1)(C3)C2=O` the figure was -0.216%. As for `CC(C)(C)NC(=O)C(=O)NCc1cccnc1`, the figure is -1.6%. Regarding `Cc1ccc2c(cnn2C(=O)CCC(=O)NC(C)c2ccccc2)c1` (stereo not shown), the “% Inhibition @ 10 uM” value is listed as -8.57%. On to `CCOC(=O)c1c(NC(=O)c2cc(-c3ccccc3OC)on2)sc2c1CCCC2`, for which the “% Inhibition @ 10 uM” value was -3.44%.

For `Cn1c2ccccc2c2nnc(SCC(=O)NC3=NN=C(c4ccccc4)CS3)nc21`, the “% Inhibition @ 10 uM” value was -2.4%. Regarding `S=C(c1ccc(-c2ccc(Cl)cc2Cl)o1)N1CCCCC1`, the “% Inhibition @ 10 uM” value was -1.29%. With `COc1cc2c(cc1OC)C(C(=O)O)C(c1cn(C)c3ccccc13)N(C)C2=O` (stereo not shown) the figure was 0.974%; with `O=C1CC(c2ccc3c(c2)OCO3)C2=C(CCCC2=O)N1` (stereo not shown), 1.16%.

Regarding `Cc1ccccc1C1CC(c2ccc(Br)cc2)Nc2nnnn21` (stereo not shown), the “% Inhibition @ 10 uM” value was 0.0842%. As for `C1CCCC(NCC2CCCO2)CC1` (stereo not shown), the figure is 1.36%.

`O=C1C=C(N2CCCC2)C(=O)N1c1ccc(Cl)cc1`: the “% Inhibition @ 10 uM” value was -4.67%.

In the case of `COCCNC(=O)c1c(NC(=O)c2ccccc2C)sc2c1CCCC2`, the “% Inhibition @ 10 uM” value is recorded as 0.83%.

On to `Cc1ccc(OCCSc2nnc3n(C)c4ccccc4n23)cc1`, for which the “% Inhibition @ 10 uM” value is given as -3.74%. In the case of `Cc1cc(=O)n2ncn(Cc3ccccc3)c2n1`, the “% Inhibition @ 10 uM” value stood at 1.26%. As for `COc1cnn(-c2ccccc2)c(=O)c1OC`, the figure is -1.84%; as for `C=CCc1ccccc1OCc1nc2ccccc2n1C`, -1.15%.

For the compound `Cc1cccc(-c2nc3n(n2)C(c2ccc(O)cc2)C2=C(O)CC(C)(C)CC2=N3)c1` (stereo not shown), the “% Inhibition @ 10 uM” value turned out to be 3.59%. On to `CNC(=O)CCCn1nc(C)c2c(C)n(-c3ccc(C)cc3)nc2c1=O`, for which the “% Inhibition @ 10 uM” value stood at 3.99%. As for `O=C(Nc1cnn(Cc2c(Cl)cccc2Cl)c1)c1ccc2c(c1)OCO2`, the figure is -1.04%. For `Cc1ccccc1Cn1c(=O)c2c(ncn2Cc2ccccc2)n(C)c1=O`, the “% Inhibition @ 10 uM” value was 1.86%. On to `O=C(NCc1ccc2c(c1)OCO2)c1cncc(NS(=O)(=O)c2ccc(Cl)cc2)c1`, for which the “% Inhibition @ 10 uM” value was -6.04%. With `COc1ccc(C(=O)O)cc1S(=O)(=O)NCc1cccnc1` the figure was -7.33%; with `CCOc1ccc(C2NC(=O)c3[nH]nc(C)c32)cc1` (stereo not shown), -13.4%. For `CCOc1ccc(S(=O)(=O)N2CCN(c3cccc(Cl)c3)CC2)c2ccccc12`, the “% Inhibition @ 10 uM” value stood at 0.528%.

Consider `O=c1oc2ccc(NS(=O)(=O)c3ccc(Cl)cc3)cc2s1`, for which the “% Inhibition @ 10 uM” value is recorded as -2.86%. Turning to `CCC(C)NC(=O)C1CCCN(S(=O)(=O)N2CCOCC2)C1` (stereo not shown), the “% Inhibition @ 10 uM” value was -0.517%. As for `O=C(Cn1nnc2sc3c(c2c1=O)CCCC3)NCc1ccccc1`, the figure is -3.21%; as for `O=c1c(Cl)c(NCCc2ccc(Cl)cc2)cnn1C12CC3CC(CC(C3)C1)C2`, -4.66%; as for `COc1cc(OC)cc(C(=O)Nc2sc3c(c2C#N)CCCCC3)c1`, -4.41%. As to `CC1=Nc2cc([N+](=O)[O-])ccc2NC(=O)C1`, the “% Inhibition @ 10 uM” value is listed as -3.13%. For the compound `CC(=O)c1cccc(NC(=O)CC2S/C(=N\c3ccc(Cl)c(Cl)c3)N(C)C2=O)c1` (stereo not shown), the “% Inhibition @ 10 uM” value is -5.67%. As for `CCCCNC(=O)Cn1ncc2c1-c1ccccc1OC2`, the figure is -1.88%.

As for `Cc1ccc(C(=O)NCc2ccc(Cl)cc2)o1`, the “% Inhibition @ 10 uM” value is given as 1.88%. As for `CCOc1ccc(CNC(=O)CCCN2C(=O)C(c3ccccc3)Oc3cccnc32)cc1` (stereo not shown), the figure is -0.397%; as for `CCn1cc(/C=C/C(=O)c2ccc(O)cc2)c(C)n1`, 1.31%. Consider `Cn1c(N)c(C(c2ccccc2)c2c(N)n(C)c(=O)n(C)c2=O)c(=O)n(C)c1=O`, for which the “% Inhibition @ 10 uM” value was -1.2%. For `c1ccc(Cn2ncc3c(Nc4ccccc4)ncnc32)cc1`, the “% Inhibition @ 10 uM” value came out at 1.35%.

Take `CC(C)=CCCC(C)CN(CC(C)O)CC(C)O` (stereo not shown): the “% Inhibition @ 10 uM” value is on record as -0.603%.

`CCC/C(=N\c1ccccc1OC)C1=C(O)CC(c2ccccc2)CC1=O` (stereo not shown): the “% Inhibition @ 10 uM” value is 2.36%.

Take `CC(=O)NS(=O)(=O)c1ccc(NC(=O)C2c3ccccc3Oc3ccccc32)cc1`: the “% Inhibition @ 10 uM” value is 3.46%.

On to `CCOC(=O)/C(C#N)=C(\C)c1ccc(Cl)cc1Cl`, for which the “% Inhibition @ 10 uM” value is listed as -0.999%.

Take `CCCC1CCC(C2=N/C(=C\c3ccccc3OC)C(=O)O2)CC1` (stereo not shown): the “% Inhibition @ 10 uM” value is 1.97%. Turning to `Cc1ccc(CN2CCC(Cc3ccccc3)CC2)o1`, the “% Inhibition @ 10 uM” value is recorded as -5.42%. As for `COC(=O)c1ccc(Oc2c(F)c(F)nc(F)c2F)cc1`, the figure is -3.41%; as for `CN(CC1COc2ccccc2O1)S(=O)(=O)c1ccc(-c2cc(C(F)(F)F)no2)s1` (stereo not shown), -3.42%. With `CCOc1ccc(-c2csc3nc(-c4ccc(F)cc4)oc(=O)c23)cc1` the figure was -3.28%.
